Measured values taken from article PMC6884552, “Glycogen branching enzyme controls cellular iron homeostasis via Iron Regulatory Protein 1 and mitoNEET” (Nature Communications, 2019).
Positions count from the first letter of the chain named. Names and notes keep the numbering of the source. These are yes or no findings as the source states them, for the method shown. In cells and extracts the contact can be indirect. Some binding calls cover weakened binding; strength is not graded here. Tags and fused reporters may be left off the sequences shown.

B1: Flag-tagged Drosophila Iron Regulatory Protein 1A (IRP1A), wild type (protein, UniProt Q9VCV4 1-902)
chain: MSGSGANPFAQFQESFTQDGNVYKYFDLPSIDSKYESLPFSIRVLLESAVRNCDNFHVLEKDVQSILGWTPSLKQETSDVEVSFKPARVILQDFTGVPAVVDFAAMRDAVRELGGNPEKINPICPADLVIDHSVQVDFVRSSDALTKNESLEFQRNKERFTFLKWGARAFDNMLIVPPGSGIVHQVNLEYLARVVFESDSSADGSKILYPDSVVGTDSHTTMINGLGVLGWGVGGIEAEAVMLGQSISMLLPEVIGYRLEGKLGPLATSTDLVLTITKHLRQLGVVGKFVEFYGPGVAELSIADRATISNMCPEYGATVGYFPIDENTLSYMRQTNRSEKKIDIIRKYLKATRQLRDYSLVDQDPQYTESVTLDLSTVVTSVSGPKRPHDRVSVSSMCEDFKSCLISPVGFKGFAIPPSALAASGEFQWDDGKSYKIGHGSVVIAAITSCTNTSNPSVMLGAGLLAKNAVQKGLSILPYIKTSLSPGSGVVTYYLRESGVIPYLEQLGFDIVGYGCMTCIGNSGPLDENVVNTIEKNGLVCCGVLSGNRNFEGRIHPNTRANYLASPLLVIAYAIAGRVDIDFEIEPLGVDSNGKEVFLRDIWPTRSEIQEVEHKHVIPAMFQEVYSKIQLGSRDWQTLEVSDSKLYPWSEISTYIKLPPFFEGMTRALPKLKGIEKARCLLLLGDSVTTDHISPAGSIARKSPAARYLSERGLTPRDFNSYGSRRGNDAVMARGTFANIRLVNKLASKTGPSTLHVPSGEEMDIFDAAERYASEGTPLVLVVGKDYGSGSSRDWAAKGPFLLGIKAVIAESYERIHRSNLVGMGIIPLQFLPGQSADTLKLSGREVYNIVLPEGELKPGQRIQVDADGNVFETTLRFDTEVDITYYKNGGILNYMIRKMLD
B2: Flag-tagged Drosophila IRP1A 3R3Q (protein, UniProt Q9VCV4 1-902)
chain: B1 chain with R549Q, R554Q, R793Q
B3: Flag-tagged human Iron Regulatory Protein 1 (IRP1) (protein, UniProt P21399 1-889)
chain: MSNPFAHLAEPLDPVQPGKKFFNLNKLEDSRYGRLPFSIRVLLEAAIRNCDEFLVKKQDIENILHWNVTQHKNIEVPFKPARVILQDFTGVPAVVDFAAMRDAVKKLGGDPEKINPVCPADLVIDHSIQVDFNRRADSLQKNQDLEFERNRERFEFLKWGSQAFHNMRIIPPGSGIIHQVNLEYLARVVFDQDGYYYPDSLVGTDSHTTMIDGLGILGWGVGGIEAEAVMLGQPISMVLPQVIGYRLMGKPHPLVTSTDIVLTITKHLRQVGVVGKFVEFFGPGVAQLSIADRATIANMCPEYGATAAFFPVDEVSITYLVQTGRDEEKLKYIKKYLQAVGMFRDFNDPSQDPDFTQVVELDLKTVVPCCSGPKRPQDKVAVSDMKKDFESCLGAKQGFKGFQVAPEHHNDHKTFIYDNTEFTLAHGSVVIAAITSCTNTSNPSVMLGAGLLAKKAVDAGLNVMPYIKTSLSPGSGVVTYYLQESGVMPYLSQLGFDVVGYGCMTCIGNSGPLPEPVVEAITQGDLVAVGVLSGNRNFEGRVHPNTRANYLASPPLVIAYAIAGTIRIDFEKEPLGVNAKGQQVFLKDIWPTRDEIQAVERQYVIPGMFKEVYQKIETVNESWNALATPSDKLFFWNSKSTYIKSPPFFENLTLDLQPPKSIVDAYVLLNLGDSVTTDHISPAGNIARNSPAARYLTNRGLTPREFNSYGSRRGNDAVMARGTFANIRLLNRFLNKQAPQTIHLPSGEILDVFDAAERYQQAGLPLIVLAGKEYGAGSSRDWAAKGPFLLGIKAVLAESYERIHRSNLVGMGVIPLEYLPGENADALGLTGQERYTIIIPENLKPQMKVQVKLDTGKTFQAVMRFDTDVELTYFLNGGILNYMIRKMAK
B4: HA-tagged Drosophila Cisd2 (natural protein, UniProt Q9VAM6 1-133, looked up)
chain: MEPISHLVKSSLPNYLSSLPVPDSIGGWFKLSFKDWLALIPPTVVVAGLGYTAYLAYCPAARASCAAKNSGRCNNHIRKNEPKVVDMIDVEDIAEKAAFCRCWKTKNWPYCDGSHGEHNKQTGDNVGPIVIKK
notes: Drosophila Cisd2, cDNA RE49709; also called mitoNEET; Cisd2/mitoNEET; source: S2 cells, transfected, in lysate
B5: Flag-tagged Drosophila IRP1A C450S (protein, UniProt Q9VCV4 1-902)
chain: B1 chain with C450S

Experiments:
Assay in all cases: co-IP; S2 cells co-transfected with two tagged cDNAs; Myc-tagged baits on Myc-Trap agarose, Flag-tagged baits on M2 Flag agarose; Western blot with anti-Flag, anti-HA or anti-Myc
[1] = biological target: T1, Myc-tagged Drosophila 1,4-Alpha-Glucan Branching Enzyme (AGBE) (Drosophila) (UniProt A1Z992)
T1 sequence: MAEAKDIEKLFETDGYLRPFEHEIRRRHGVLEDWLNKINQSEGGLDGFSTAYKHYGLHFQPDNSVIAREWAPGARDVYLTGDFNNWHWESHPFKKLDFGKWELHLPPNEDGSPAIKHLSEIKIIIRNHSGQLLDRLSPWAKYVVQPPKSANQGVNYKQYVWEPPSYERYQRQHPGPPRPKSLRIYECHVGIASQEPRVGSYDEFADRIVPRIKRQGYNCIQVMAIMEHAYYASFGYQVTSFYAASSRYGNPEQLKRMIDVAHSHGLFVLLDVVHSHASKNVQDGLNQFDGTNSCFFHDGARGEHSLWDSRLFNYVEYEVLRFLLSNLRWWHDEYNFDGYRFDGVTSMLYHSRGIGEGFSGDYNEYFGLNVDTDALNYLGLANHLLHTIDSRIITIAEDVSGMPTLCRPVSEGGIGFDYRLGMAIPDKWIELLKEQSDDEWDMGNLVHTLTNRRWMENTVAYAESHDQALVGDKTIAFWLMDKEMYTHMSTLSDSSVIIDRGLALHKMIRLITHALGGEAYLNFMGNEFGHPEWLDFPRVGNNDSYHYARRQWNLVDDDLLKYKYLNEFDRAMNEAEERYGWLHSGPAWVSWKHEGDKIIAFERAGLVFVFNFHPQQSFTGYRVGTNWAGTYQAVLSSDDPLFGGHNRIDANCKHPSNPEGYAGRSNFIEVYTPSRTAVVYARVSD

[2] = biological target: T2, Myc-tagged human Glycogen Branching Enzyme 1 (GBE1) (human) (UniProt Q04446)
T2 sequence: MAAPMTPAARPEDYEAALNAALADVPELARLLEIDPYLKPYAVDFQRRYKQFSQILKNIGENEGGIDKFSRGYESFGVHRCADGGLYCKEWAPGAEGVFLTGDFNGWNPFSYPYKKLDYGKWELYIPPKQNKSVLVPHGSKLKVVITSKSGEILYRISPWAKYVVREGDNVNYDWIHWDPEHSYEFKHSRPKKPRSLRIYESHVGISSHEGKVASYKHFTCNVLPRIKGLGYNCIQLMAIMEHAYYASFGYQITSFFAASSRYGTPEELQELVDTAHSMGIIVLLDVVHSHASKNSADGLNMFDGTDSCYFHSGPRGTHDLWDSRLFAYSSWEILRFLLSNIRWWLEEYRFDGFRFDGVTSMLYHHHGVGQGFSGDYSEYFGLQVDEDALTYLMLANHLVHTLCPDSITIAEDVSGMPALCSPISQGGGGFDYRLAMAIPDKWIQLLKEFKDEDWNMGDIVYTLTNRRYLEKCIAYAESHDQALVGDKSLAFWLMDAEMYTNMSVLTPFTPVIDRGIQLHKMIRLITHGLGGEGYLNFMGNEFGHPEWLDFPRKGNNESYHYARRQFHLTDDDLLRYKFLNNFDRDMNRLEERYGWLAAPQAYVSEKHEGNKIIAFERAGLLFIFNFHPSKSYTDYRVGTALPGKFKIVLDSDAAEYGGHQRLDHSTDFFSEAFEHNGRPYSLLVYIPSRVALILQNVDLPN

[3] = biological target: T3, Flag-tagged Drosophila Iron Regulatory Protein 1A (IRP1A), wild type (Drosophila) (UniProt Q9VCV4)
T3 sequence: B1 chain

Binder	binding [1]	binding [2]	binding [3]
B1	binds	–	–
B2	binds	–	–
B3	–	binds	–
B4	binds	–	binds
B5	no binding	–	–
